# Where “and” joins values, the source holds several entries; their conditions need not be identical. Equal values may be shown once. The campaign covered roughly 94,000 compounds. About 6,200 (6.6%) were called active. This list was built around the results that the source calls inconclusive (neither active nor inactive); the mix of calls is not that of the screen. Calls follow the shape of the dose curve; as a rule, active = well fitted inhibition curve with a large enough effect; inconclusive = small, poorly fitted or top-dose-only effect; inactive = flat fitted curve, though single readings scatter. A potency beside an inconclusive call is a rough fit, not a confirmed value.
# Test: Cytotoxic Profiling in HEK 293 Cell Line of Diverse Libraries Using Quantitative High-Throughput Screening; also: nearly all actives have a fitted effect of over 60% in size
# Conditions: HEK 293 viability, ATP luminescence (CellTiter-Glo), 48-72 h; series mostly up to 115 µM
# Procedure, shortened: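 HEK 293 cells seeded at 250 cells/well were exposed to compound for 48 or 72 hr at 37 degree Celsius. Viability taken as ATP content by CellTiter-Glo luminescence.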
# Potency is read from the fitted curve at half-maximal effect; tags tell the direction and shape of the fitted curve.
row,Structure (SMILES),Potency
1,CCCOCCNC(=O)c1c(C)noc1-c1ccc(OC(F)(F)F)cc1,"inconclusive: 44.7 µM [inhibitor, partial curve]"
2,Cc1cccc(C(=O)N2CC[C@@H](NC(=O)c3cnccn3)[C@H](O)C2)n1,inactive
3,Cn1ncc2c(C(=O)NCC(F)(F)F)cc(-c3ccc(Cl)nc3)nc21,inactive
4,COc1ccc(CN2C(=O)CO[C@H]3CN(Cc4ccccc4Cl)C[C@H]32)cc1,"inconclusive: 100 µM [inhibitor, partial curve]"
5,Cc1ccc(C(=O)N2CCC3(Cc4ccccc4NC3=O)C2)cc1 (stereo not given),"inconclusive: 79.4 µM [inhibitor, partial curve, poor fit]"
6,COc1cccc(-c2cn3cc(C(=O)NCc4ccccc4Cl)nc3s2)c1,"inconclusive: 20 µM [inhibitor, full curve, poor fit]"
7,COCCN1Cc2ccccc2N(CC(O)Cc2ccccc2)CCC1=O (stereo not given),"inconclusive: 44.7 µM [inhibitor, partial curve]"
8,COc1ccc(CN2CCOc3nc(-c4cccc(N(C)C)c4)ncc3C2=O)cc1,"inconclusive: 100 µM [inhibitor, partial curve, poor fit]"
9,CC(=O)Nc1ccc(CC(=O)N2CCC3(CCc4nn(Cc5ccccc5)c(=O)n4CC3)CC2)cc1,inactive
10,Cc1nnc(CN2CCC3(C2)C(=O)N(C)C(=O)N3C)o1 (stereo not given),inactive
11,COc1ccc(CN2C[C@H]3CN(Cc4ccc5c(c4)OCCO5)CCN3C2=O)cc1,"inconclusive: 79.4 µM [inhibitor, partial curve, poor fit]"
12,CCN(CC1CCN(CCc2ccccc2C)CC1)C(=O)c1cc(C)nc(C)n1,"inconclusive: 89.1 µM [inhibitor, single point]"
13,O=S(=O)(c1ccccc1Cl)N1CCC(c2noc(COCC3CC3)n2)CC1,"inconclusive: 56.2 µM [inhibitor, partial curve, poor fit]"
14,CC(=O)N1CC(N2C(=O)c3c(c(C)nn3-c3ccccc3)C2C)C1 (stereo not given),inactive
15,Cc1cc(Br)ccc1NC(=O)C[C@H]1NC(=O)c2ccccc2NC1=O,"inconclusive: 35.5 µM [inhibitor, full curve, poor fit]"
16,Cc1ccc(CN2CCC(c3nn(Cc4ccccc4)c(=O)[nH]3)CC2)cc1,inactive
17,O=C(NC1CCOCC1)c1ccc2c(c1)OCCN(c1ccccc1)C2,active: 79.4 µM
18,COc1ccc(C)cc1NC(=O)C1CN(S(=O)(=O)c2cccnc2)CC12CCCCC2 (stereo not given),"inconclusive: 39.8 µM [inhibitor, partial curve, poor fit]"
19,COc1ccc(CN2CC[C@H](c3nnc(-c4ccccc4)o3)C2)cc1,"inconclusive: 126 µM [inhibitor, single point]"
20,COc1cccc(-c2nnnn2[C@H]2CO[C@H]3[C@@H]2OC[C@@H]3NC(=O)c2ccc(N(C)C)cc2)c1,"inconclusive: 39.8 µM [inhibitor, partial curve]"
21,Cc1cc(CNC(=O)c2cc(-c3ccccc3)cc3c2OCCN3C)no1,active: 100 µM
22,COC(=O)CNC(=O)C1CCCN1C(=O)c1cccc(-c2cccnc2)c1 (stereo not given),"inconclusive: 79.4 µM [inhibitor, single point]"

row,Structure (SMILES),Potency
1,COc1cccc(CN2CCC3(CCC3OC)CC2)c1 (stereo not given),"inconclusive: 35.5 µM [inhibitor, full curve, poor fit]"
2,Cc1ccc(-c2cc(CN3CC(=O)N4CCC[C@H]4C3=O)on2)cc1,inactive
3,O=C(c1cccnc1)N1CCC2(CNS(=O)(=O)c3cnccc3O2)C1 (stereo not given),inactive
4,CC(C)(C)CN1CCOC[C@H]1c1ncc(-c2ccc(Cl)cc2)[nH]1,active: 79.4 µM
5,Cc1ccc2nc(C3CCCN(Cc4cccc(-c5cccnc5)c4)C3)[nH]c(=O)c2c1 (stereo not given),"inconclusive: 56.2 µM [inhibitor, partial curve, poor fit] and active: 31.6 µM"
6,Cc1cc(=O)n(CC(=O)Nc2ccccc2C)c(N2CCN(c3ccccc3)CC2)n1,"inconclusive: 39.8 µM [inhibitor, partial curve, poor fit]"
7,Cc1ccc(C(=O)N2CCn3c(nnc3[C@@H]3C[C@@H](O)CN3Cc3ccccc3)C2)cn1,"inconclusive: 89.1 µM [inhibitor, single point]"
8,O=C(C1CCCN(Cc2cccc(-c3ccsc3)c2)C1)N1CCN(Cc2ccccc2)CC1 (stereo not given),active: 39.8 µM
9,Cc1noc(-c2cn(C3CCN(C(=O)c4ccc(C)c(C)c4)CC3)nn2)n1,inactive
10,O=C(CC(c1cccc(F)c1)c1cn(Cc2ccccc2)c2ccc([N+](=O)[O-])cc12)N1CCCC1 (stereo not given),"inconclusive: 25.1 µM [inhibitor, partial curve]"
11,CN1Cc2ncnc(NCCc3ccccc3F)c2CN(c2ccccc2)C1=O,"inconclusive: 89.1 µM [inhibitor, single point]"
12,COc1cccc(CN2C(=O)CCCCC2C(=O)N2CCc3ccccc3C2)c1 (stereo not given),"inconclusive: 44.7 µM [inhibitor, partial curve, poor fit]"
13,CC(=O)NC[C@@H]1C=C(C)[C@H](Cc2nc3ccccc3n2C)C[C@H]1C(C)C,active: 35.5 µM
14,O=C(CCC1CCCC1)N1CCC(Cc2nc(C3CCOCC3)no2)CC1,"inconclusive: 39.8 µM [inhibitor, full curve, poor fit]"
15,O=C(CN1CCOc2c(O)cc(-c3csc4ccccc34)cc2C1)N1CCOCC1,"inconclusive: 50.1 µM [inhibitor, partial curve, poor fit]"
16,O=C(NCc1ccccc1)c1cc(-c2ccc(Cl)cc2Cl)c2nncn2n1,"inconclusive: 35.5 µM [inhibitor, partial curve, poor fit]"
17,CN(CC#N)C(=O)c1cc(-c2cccc(C(F)(F)F)c2)nc2c1cnn2C,"inconclusive: 31.6 µM [inhibitor, full curve]"
18,COc1ncccc1-c1cnc2[nH]cc(CC(=O)NC3CCOCC3)c2c1,"inconclusive: 79.4 µM [inhibitor, partial curve, poor fit]"
19,Cc1nn(-c2ccc(F)cc2)c(Oc2ccccc2F)c1CCC(=O)N1CCCC1,active: 35.5 µM
20,O=C(N[C@@H]1CN(C(=O)NC2CCCCC2)CCC[C@H]1O)c1ccc(OCc2ccccc2)cc1,"inconclusive: 50.1 µM [inhibitor, partial curve, poor fit]"
21,COc1cccc(CN2Cc3nc(-c4cccc(O)c4)ccc3OCC2=O)c1,active: 100 µM
22,COCc1ncc(C)n1CC1CCN(S(=O)(=O)c2c(C)noc2C)CC1,inactive

row,Structure (SMILES),Potency
1,CCc1ccc(NC(=O)N(C)CC2CCOC2)cc1 (stereo not given),inactive
2,COc1ccccc1C(=O)N1CCCCCC1c1nnc(-c2ccccc2)o1 (stereo not given),"inconclusive: 89.1 µM [inhibitor, single point]"
3,CN1CCOc2nc(-c3cccc(OC(F)(F)F)c3)ncc2C1=O,"inconclusive: 28.2 µM [inhibitor, full curve]"
4,Cc1c(-c2ccccc2F)[nH]c2ccc(CNC(=O)C3CCNC3)cc12 (stereo not given),"inconclusive: 50.1 µM [inhibitor, partial curve, poor fit]"
5,Cc1oc(-c2cccc(C(F)(F)F)c2)nc1CN1CCCC(CO)C1 (stereo not given),"inconclusive: 39.8 µM [inhibitor, partial curve, poor fit]"
6,Cc1nn(-c2ccccc2)c2c1C(C1CC1)N(CC1CN(C(=O)Nc3ccccc3)C1)C2=O (stereo not given),"inconclusive: 39.8 µM [inhibitor, full curve]"
7,COc1ccc(C(=O)N2CCC3(CC2)C(OC)C(=O)N3CC2CC2)c(OC)c1 (stereo not given),inactive
8,O=C(CCC1CCCC1)N1CCC2(CC1)CC(N(Cc1ccc(F)cc1)C1CC1)CCO2 (stereo not given),"inconclusive: 50.1 µM [inhibitor, partial curve, poor fit]"
9,N#Cc1cccc(-c2cn3c(n2)N(C(=O)C2CCCO2)CCC3)c1 (stereo not given),"inconclusive: 89.1 µM [inhibitor, single point]"
10,C[C@H]1CN(S(=O)(=O)c2ccccc2)C[C@@H]1c1nc(-c2ccncc2)no1,"inconclusive: 15.8 µM [inhibitor, full curve]"
11,COc1ccccc1CC(=O)N1CCN(C(=O)c2nnn3c2COC(c2ccc(Cl)cc2)C3)CC1 (stereo not given),"inconclusive: 44.7 µM [inhibitor, partial curve, poor fit]"
12,CCNc1cc(N2CCC(CCC(=O)N3CCN(c4ncccn4)CC3)CC2)ncn1,active: 50.1 µM
13,Cn1ncc2c(C(=O)Nc3cccc(Cl)c3)cc(-c3ccccc3C(F)(F)F)nc21,"inconclusive: 89.1 µM [inhibitor, partial curve]"
14,CCOc1ccc(C(=O)N2CCC3(CC2)NC(=O)N(c2ccc(F)cc2)N3)cc1,"inconclusive: 39.8 µM [inhibitor, partial curve, poor fit]"
15,COc1ccc2c3c1CN(C(=O)Cc1cccs1)CC3=CC(C)(C)CO2,"inconclusive: 50.1 µM [inhibitor, partial curve, poor fit]"
16,CCc1[nH]c2ccc(CNC(=O)Cc3cnc4c(C)cccn34)cc2c1C,"inconclusive: 56.2 µM [inhibitor, partial curve, poor fit]"
17,CC(C(=O)NCc1ccccc1F)C1CCOCC1 (stereo not given),inactive
18,CCN(CC)C(=O)[C@@H](C)C1CC[C@@]2(C)CC[C@H](NC(=O)COc3ccccc3)[C@@H](C)[C@@H]2[C@H]1O (stereo not given in full),inactive
19,Cc1cc(C(=O)NC2CC2)c2c(C3CCNC3)noc2n1 (stereo not given),inactive
20,O[C@H]1[C@H](NCc2cccc(C(F)(F)F)c2)[C@@H](c2cccnc2)C[C@H]1O,inactive
21,Cc1noc(C)c1CC(=O)NC1CCCc2c1[nH]c1ccccc21 (stereo not given),"inconclusive: 39.8 µM [inhibitor, partial curve, poor fit]"
